Experimental findings from the RNAGym collection of RNA variant scans (doi:10.1093/nar/gkz1192) are described below.

Sequences and labels used below:
B1: CPEB3 Ribozyme (parent)
chain: UAACAGGGGGCCACAGCAGAAGCGUUCACGUCGCAGCCCCUGUCAGAUUCUGGUGAAUCUGCGAAUUCUGCUGUAUAUCUC

Read counts are not given, so values of variants with three or more changes are uncertain.

Variants of B1 are the subject of this data set. Nature of the data set: self-cleavage, relative activity (ratio to wild type); higher = more cleavage; in vitro, sequencing. Summed up: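 For each CPEB3 ribozyme variant, relative activity is its cleaved/total read fraction divided by the unmutated ribozyme's. Barcoded error-prone PCR libraries were transcribed by T7 RNA polymerase (5 hours, 37°C) and held in DNase I for 15 min before an EDTA stop, with cleavage occurring throughout. Template-switching reverse transcription and Illumina sequencing were used to read the RNAs. A 5-read minimum applied, and results are the mean of three batches.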
On to UAACAGGGGGCCACAGCAGAAGCGUUCACGUCGCAGCCCCUGUCAGAUUCUGGUGAAUCUGCGAAUUCUGCCGCAUAUCCC [U72C U74C U80C], for which the self-cleavage is 1.27.
Take UAACAGGGGGCCACAGCAGAAGCGUUCACGUCGCAGCCCCUGUCAGAUUCUGGUGAAUCUGCGAAUUCUGCCGUAUACCAC [U72C U78C U80A]: the self-cleavage came out at 0.94.
As to UAACAGGGGGCCACAGCAGAAGCGUUCACGUCGCAGCCCCUGUCAGAUUCUGGUGAAUCUGCGAAUUCAGCCGUACAUCUC [U69A U72C U76C], the self-cleavage amounted to 0.61.
The result for UAACAGGGGGCCACAGCAGAAGCGUUCACGUCGCAGCCCCUGUCAGAUUCUGGUGAAUCUGCGAAUUCCAUUGUAUAUCUC [U69C G70A C71U] reads 0.18; that for UAACAGGGGGCCACAGCAGAAGCGUUCACGUCGCAGCCCCUGUCAGAUUCUGGUGAAUCUGCGAAUUCAGCUGUCCAUCUC [U69A A75C U76C], 0.83.
The result for UAACAGGGGGCCACAGCAGAAGCGUUCACGUCGCAGCCCCUGUCAGAUUCUGGUGAAUCUGCGAAUCCUGCUAUAUAUCCC [U67C G73A U80C] reads 0.58; that for UAACAGGGGGCCACAGCAGAAGCGUUCACGUCGCAGCCCCUGUCAGAUUCUGGUGAAUCUGCGAAUUCUCCUGUAUUCCCC [G70C A77U U78C U80C], 0.19; that for UAACAGGGGGCCACAGCAGAAGCGUUCACGUCGCAGCCCCUGUCAGAUUCUGGUGAAUCUGCGAAUUCUGGCGUACAUCUC [C71G U72C U76C], 0.4.
For the variant UAACAGGGGGCCACAGCAGAAGCGUUCACGUCGCAGCCCCUGUCAGAUUCUGGUGAAUCUGCGAACUCAACUGUAUACCUC [U66C U69A G70A U78C], the self-cleavage was 0.15.
Turning to UAACAGGGGGCCACAGCAGAAGCGUUCACGUCGCAGCCCCUGUCAGAUUCUGGUGAAUCUGCGAAUUCUGCUUUAUACCCC [G73U U78C U80C], the self-cleavage came out at 1.29.
Turning to UAACAGGGGGCCACAGCAGAAGCGUUCACGUCGCAGCCCCUGUCAGAUUCUGGUGAAUCUGCGAAUACUGCUGAAUACCUC [U67A U74A U78C], the self-cleavage came out at 0.8.
Take UAACAGGGGGCCACAGCAGAAGCGUUCACGUCGCAGCCCCUGUCAGAUUCUGGUGAAUCUGCGAAUCAUGCUGAAUAUCUC [U67C C68A U74A]: the self-cleavage came out at 0.27.
The result for UAACAGGGGGCCACAGCAGAAGCGUUCACGUCGCAGCCCCUGUCAGAUUCUGGUGAAUCUGCGAAUCAUGCUGCAUAUCUC [U67C C68A U74C] reads 0.4.
The same measure for UAACAGGGGGCCACAGCAGAAGCGUUCACGUCGCAGCCCCUGUCAGAUUCUGGUGAAUCUGCGAACUCCGCCGUAUAUCUC [U66C U69C U72C]: 0.32; for UAACAGGGGGCCACAGCAGAAGCGUUCACGUCGCAGCCCCUGUCAGAUUCUGGUGAAUCUGCGAAUUCUGCUGUAAACCCC [U76A U78C U80C]: 0.7.
The result for UAACAGGGGGCCACAGCAGAAGCGUUCACGUCGCAGCCCCUGUCAGAUUCUGGUGAAUCUGCGAAUUCAGCUUUAUACUCC [U69A G73U U78C C79U U80C] reads 1.01; that for UAACAGGGGGCCACAGCAGAAGCGUUCACGUCGCAGCCCCUGUCAGAUUCUGGUGAAUCUGCGAAUUCUGCUGUUAAUCAC [A75U U76A U80A], 1.2; that for UAACAGGGGGCCACAGCAGAAGCGUUCACGUCGCAGCCCCUGUCAGAUUCUGGUGAAUCUGCGAAUUCUGCCGUAUUUCCC [U72C A77U U80C], 1.35.
Take UAACAGGGGGCCACAGCAGAAGCGUUCACGUCGCAGCCCCUGUCAGAUUCUGGUGAAUCUGCGAAUUCUUCGGUAUAUCGC [G70U U72G U80G]: the self-cleavage was found to be 0.35.
The result for UAACAGGGGGCCACAGCAGAAGCGUUCACGUCGCAGCCCCUGUCAGAUUCUGGUGAAUCUGCGAACUCUGCCGUAUAUCCC [U66C U72C U80C] reads 0.41; that for UAACAGGGGGCCACAGCAGAAGCGUUCACGUCGCAGCCCCUGUCAGAUUCUGGUGAAUCUGCGAAUUCAGACGUAUAUCUC [U69A C71A U72C], 0.29.
The result for UAACAGGGGGCCACAGCAGAAGCGUUCACGUCGCAGCCCCUGUCAGAUUCUGGUGAAUCUGCGAACUCAGCUGUAUGUCUC [U66C U69A A77G] reads 0.45.
The same measure for UAACAGGGGGCCACAGCAGAAGCGUUCACGUCGCAGCCCCUGUCAGAUUCUGGUGAAUCUGCGAAUAUUGCUGUAUCUCUC [U67A C68U A77C]: 0.49; for UAACAGGGGGCCACAGCAGAAGCGUUCACGUCGCAGCCCCUGUCAGAUUCUGGUGAAUCUGCGAACUCCGCUAUAUAUCUC [U66C U69C G73A]: 0.45.
UAACAGGGGGCCACAGCAGAAGCGUUCACGUCGCAGCCCCUGUCAGAUUCUGGUGAAUCUGCGAAUCCUGCCGUAUUUCUC [U67C U72C A77U]: the self-cleavage turned out to be 0.27.
The result for UAACAGGGGGCCACAGCAGAAGCGUUCACGUCGCAGCCCCUGUCAGAUUCUGGUGAAUCUGCGAAUCCUGCCGUUUAUCUC [U67C U72C A75U] reads 0.4; that for UAACAGGGGGCCACAGCAGAAGCGUUCACGUCGCAGCCCCUGUCAGAUUCUGGUGAAUCUGCGAACUCCGCCGUAUAUCCC [U66C U69C U72C U80C], 0.49.
With UAACAGGGGGCCACAGCAGAAGCGUUCACGUCGCAGCCCCUGUCAGAUUCUGGUGAAUCUGCGAAUUCCGCUGAAUACCUC [U69C U74A U78C], the self-cleavage turned out to be 0.74.
Take UAACAGGGGGCCACAGCAGAAGCGUUCACGUCGCAGCCCCUGUCAGAUUCUGGUGAAUCUGCGAAUUCCGCUGUGUAACUC [U69C A75G U78A]: the self-cleavage is 0.52.
The same measure for UAACAGGGGGCCACAGCAGAAGCGUUCACGUCGCAGCCCCUGUCAGAUUCUGGUGAAUCUGCGAAUACUGCUGUAAAUCAC [U67A U76A U80A]: 0.72; for UAACAGGGGGCCACAGCAGAAGCGUUCACGUCGCAGCCCCUGUCAGAUUCUGGUGAAUCUGCGAAUUCUGCUGUACGUCAC [U76C A77G U80A]: 1.04; for UAACAGGGGGCCACAGCAGAAGCGUUCACGUCGCAGCCCCUGUCAGAUUCUGGUGAAUCUGCGAAUUCCGCUGCAUACCUC [U69C U74C U78C]: 0.61.
The result for UAACAGGGGGCCACAGCAGAAGCGUUCACGUCGCAGCCCCUGUCAGAUUCUGGUGAAUCUGCGAAUUCCGCUGCAUAACUC [U69C U74C U78A] reads 0.91.
With UAACAGGGGGCCACAGCAGAAGCGUUCACGUCGCAGCCCCUGUCAGAUUCUGGUGAAUCUGCGAAUUCAGCUAUUUACCUC [U69A G73A A75U U78C], the self-cleavage worked out at 1.11.
The same measure for UAACAGGGGGCCACAGCAGAAGCGUUCACGUCGCAGCCCCUGUCAGAUUCUGGUGAAUCUGCGAAUCCUGCAGUAUACCUC [U67C U72A U78C]: 0.15.
